The whole screen tested about 310,000 compounds, of which about 14,000 (4.5%) showed an effect of 50% or more. Effects have a minus sign here. The list shows a part of the results.
biological target: human ether-à-go-go-related gene (hERG) potassium channel (human, UniProt Q12809); experiment: primary screen, population patch clamp on CHO cells stably expressing hERG
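Further: peak tail current of the secondary pulse compared with the same well before compound.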

human ether-à-go-go-related gene (hERG) potassium channel, sequence (Q12809 whole entry, looked up): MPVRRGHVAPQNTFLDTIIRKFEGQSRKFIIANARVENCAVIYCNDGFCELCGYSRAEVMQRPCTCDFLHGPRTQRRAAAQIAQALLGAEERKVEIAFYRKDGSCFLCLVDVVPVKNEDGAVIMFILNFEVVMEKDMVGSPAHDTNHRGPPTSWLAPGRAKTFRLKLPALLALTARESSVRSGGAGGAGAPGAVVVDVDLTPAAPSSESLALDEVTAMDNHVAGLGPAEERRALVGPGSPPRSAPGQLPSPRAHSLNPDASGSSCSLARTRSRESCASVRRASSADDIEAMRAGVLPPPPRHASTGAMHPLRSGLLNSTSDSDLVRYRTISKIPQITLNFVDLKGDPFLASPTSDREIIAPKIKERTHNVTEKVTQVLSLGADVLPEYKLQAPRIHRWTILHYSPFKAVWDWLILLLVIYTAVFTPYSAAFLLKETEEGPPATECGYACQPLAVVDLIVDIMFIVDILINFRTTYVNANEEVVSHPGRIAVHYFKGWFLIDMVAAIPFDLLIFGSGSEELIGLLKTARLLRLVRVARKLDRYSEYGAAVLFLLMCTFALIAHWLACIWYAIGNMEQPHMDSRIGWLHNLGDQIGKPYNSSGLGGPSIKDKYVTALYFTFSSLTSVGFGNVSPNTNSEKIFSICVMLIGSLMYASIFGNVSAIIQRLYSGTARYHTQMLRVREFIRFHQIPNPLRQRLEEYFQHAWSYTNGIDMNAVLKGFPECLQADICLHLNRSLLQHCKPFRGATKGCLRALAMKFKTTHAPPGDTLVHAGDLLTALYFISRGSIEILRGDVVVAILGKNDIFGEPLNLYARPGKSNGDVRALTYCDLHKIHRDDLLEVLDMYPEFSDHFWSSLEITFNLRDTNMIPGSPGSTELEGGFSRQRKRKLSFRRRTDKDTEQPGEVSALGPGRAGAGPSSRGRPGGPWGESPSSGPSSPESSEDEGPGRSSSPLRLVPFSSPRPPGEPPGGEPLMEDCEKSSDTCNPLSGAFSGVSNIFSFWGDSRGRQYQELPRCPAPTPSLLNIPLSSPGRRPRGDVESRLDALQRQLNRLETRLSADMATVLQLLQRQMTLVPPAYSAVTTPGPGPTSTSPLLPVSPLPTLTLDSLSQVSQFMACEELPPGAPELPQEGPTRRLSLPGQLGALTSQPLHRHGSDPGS

**Q.** For `Cc1ccc(OCc2cc(C(=O)N3CCCC(O)C3)no2)cn1` (stereo not shown), which “hERG current change (%, negative = inhibition) at 10uM” value is on record?
**A.** 17.7%

**Q.** Which “hERG current change (%, negative = inhibition) at 10uM” value does the source give for `CC(=O)Cn1c(C(F)(F)F)nc2ccccc21` here?
**A.** 4.13%

**Q.** `CC(C)c1[nH]nc2c1C(C1C=CCCC1)C(C#N)=C(N)O2` (stereo not shown) was tested. Which “hERG current change (%, negative = inhibition) at 10uM” value did it give?
**A.** 2.86%

**Q.** How did the “hERG current change (%, negative = inhibition) at 10uM” value turn out when `N/C(=N\OC(=O)c1ccco1)c1cccnc1` was run?
**A.** 16.8%

**Q.** For `CCCCNC(=O)c1ccc2c(OCC)n(CCCC)nc2c1`, which “hERG current change (%, negative = inhibition) at 10uM” value is on record?
**A.** -9.85%

**Q.** For `NC(=O)C[n+]1cccc(/C=N/O)c1.[Cl-]`, which “hERG current change (%, negative = inhibition) at 10uM” value is on record?
**A.** 13.9%

**Q.** Which “hERG current change (%, negative = inhibition) at 10uM” value does the source give for `COc1ccc(NC(=O)c2[nH]c(C)c(C(C)=O)c2C)cc1S(=O)(=O)Nc1ccc(Br)cc1` here?
**A.** 3.34%

**Q.** `CCOC(=O)c1cc2cc(OC)ccc2nc1C` was tested. Which “hERG current change (%, negative = inhibition) at 10uM” value did it give?
**A.** -7.74%

**Q.** `Cc1cc(OC(C)C(=O)NCc2ccncc2)c2c3c(c(=O)oc2c1)CCCC3` (stereo not shown) was tested. Which “hERG current change (%, negative = inhibition) at 10uM” value did it give?
**A.** -2.03%

**Q.** How did the “hERG current change (%, negative = inhibition) at 10uM” value turn out when `Cc1nn(C)cc1S(=O)(=O)N1CCN(c2ccccc2F)CC1` was run?
**A.** -11%

**Q.** Which “hERG current change (%, negative = inhibition) at 10uM” value does the source give for `Cc1cccc(CN2CCC(CNC(=O)CCNC(=O)Cn3ccc4ccccc4c3=O)CC2)c1` here?
**A.** 8.14%

**Q.** `Cc1cccc(C(=O)Nc2nnc(-c3ccc(C(C)(C)C)cc3)s2)c1` was tested. Which “hERG current change (%, negative = inhibition) at 10uM” value did it give?
**A.** -8.1%

**Q.** With `COc1ccc(CNC(=O)COC(=O)Cc2ccc(Cl)cc2Cl)cc1` as the compound, how does the “hERG current change (%, negative = inhibition) at 10uM” value read?
**A.** 6.99%

**Q.** For `CC(=O)Nc1ccccc1N(C)S(=O)(=O)c1ccc(C)cc1`, which “hERG current change (%, negative = inhibition) at 10uM” value is on record?
**A.** 4.52%

**Q.** How did the “hERG current change (%, negative = inhibition) at 10uM” value turn out when `O=C(OCn1nnc2ccccc2c1=O)C1=COCCO1` was run?
**A.** 16.1%

**Q.** For `Cc1ccc(S(=O)(=O)NCCC(=O)OCC(=O)NCCc2ccccc2)cc1C`, which “hERG current change (%, negative = inhibition) at 10uM” value is on record?
**A.** -19.3%

**Q.** `N#C/C(=C\c1cn(CC(=O)N2CCCCC2)c2ccccc12)C(=O)NCc1ccc2c(c1)OCO2` was tested. Which “hERG current change (%, negative = inhibition) at 10uM” value did it give?
**A.** -0.928%

**Q.** Which “hERG current change (%, negative = inhibition) at 10uM” value does the source give for `Cc1cccc(CSC2=NCCN2C(=O)C2CC2)c1` here?
**A.** -0.275%

**Q.** With `Cc1nc(SC(C)C(=O)NC2CCCCC2C)c2c(C)c(C)sc2n1` (stereo not shown) as the compound, how does the “hERG current change (%, negative = inhibition) at 10uM” value read?
**A.** -0.981%

**Q.** Which “hERG current change (%, negative = inhibition) at 10uM” value does the source give for `COc1ccc(CCNS(=O)(=O)c2ccc3c(c2)NC(=O)C(C)S3)cc1OC` (stereo not shown) here?
**A.** 20.3%

**Q.** For `CCOC(=O)c1ccc(-c2c(-c3ccc4c(c3)OCO4)noc2C)cc1F`, which “hERG current change (%, negative = inhibition) at 10uM” value is on record?
**A.** 3.97%

**Q.** Which “hERG current change (%, negative = inhibition) at 10uM” value does the source give for `CCOc1ccc(-c2nnn(CC(=O)N3CCCC3)n2)cc1OCC` here?
**A.** 13.8%

**Q.** Which “hERG current change (%, negative = inhibition) at 10uM” value does the source give for `CCc1nnc(NC(=O)c2ccc(Br)o2)s1` here?
**A.** 21.7%

**Q.** `COc1ccc(N2CCOCC2)c(NC(=O)COc2cccc(C)c2C)c1` was tested. Which “hERG current change (%, negative = inhibition) at 10uM” value did it give?
**A.** 17.1%

**Q.** For `Cc1cc(C)cc(NC(=O)N2CCCCCCC2)c1`, which “hERG current change (%, negative = inhibition) at 10uM” value is on record?
**A.** 12.4%

**Q.** With `Cc1cc(=O)oc2c(C)c(OCC(=O)NC3CC(C)(C)NC(C)(C)C3)ccc12` as the compound, how does the “hERG current change (%, negative = inhibition) at 10uM” value read?
**A.** -23.6%

**Q.** With `O=C(CSc1ccc(-c2ccccn2)nn1)N1CCCc2ccccc21` as the compound, how does the “hERG current change (%, negative = inhibition) at 10uM” value read?
**A.** -18.9%

**Q.** With `CCN(CC)C(=O)COc1ccc2c(-c3ccccc3)cc(=O)oc2c1` as the compound, how does the “hERG current change (%, negative = inhibition) at 10uM” value read?
**A.** -6.27%

**Q.** Which “hERG current change (%, negative = inhibition) at 10uM” value does the source give for `O=C(c1ccco1)N(Cc1cccc(Cl)c1)C1CCS(=O)(=O)C1` (stereo not shown) here?
**A.** -59%

**Q.** How did the “hERG current change (%, negative = inhibition) at 10uM” value turn out when `COC(=O)c1sc2ncn(CC(=O)NCCc3ccc(OC)c(OC)c3)c(=O)c2c1C` was run?
**A.** -6.37%

**Q.** With `COc1cc2cc(CCCOC(=O)CCCC(=O)O)oc(=O)c2cc1OC` as the compound, how does the “hERG current change (%, negative = inhibition) at 10uM” value read?
**A.** 14%

**Q.** How did the “hERG current change (%, negative = inhibition) at 10uM” value turn out when `CC1=CC(=O)CC2C1(C)CCC(C)C2(C)CCC(C)CC(=O)O` (stereo not shown) was run?
**A.** 8.07%

**Q.** `COc1cccc2cc(/C(C)=N/NC(=O)c3ccco3)oc12` was tested. Which “hERG current change (%, negative = inhibition) at 10uM” value did it give?
**A.** -52.2%

**Q.** `CN1CCN(C2OC(=O)c3ccccc32)CC1` (stereo not shown) was tested. Which “hERG current change (%, negative = inhibition) at 10uM” value did it give?
**A.** -5.6%

**Q.** `Cc1ccc(N=C(c2cccs2)N2CCOCC2)cc1` was tested. Which “hERG current change (%, negative = inhibition) at 10uM” value did it give?
**A.** -7.14%

**Q.** `O=C1CC(N2CCSCC2)C(=O)N1c1cccc(Cl)c1` (stereo not shown) was tested. Which “hERG current change (%, negative = inhibition) at 10uM” value did it give?
**A.** 12.4%

**Q.** `CSc1cccc(NC(=S)N2CCC(c3ccccc3)C2)c1` (stereo not shown) was tested. Which “hERG current change (%, negative = inhibition) at 10uM” value did it give?
**A.** 7.54%

**Q.** With `Cc1ccc(-n2nc(C(=O)O)cc2-c2ccccc2)cc1` as the compound, how does the “hERG current change (%, negative = inhibition) at 10uM” value read?
**A.** 14.5%

**Q.** For `COc1ccccc1N1CCN(C(=O)c2cc(-c3ccc(Cl)c(Cl)c3)on2)CC1`, which “hERG current change (%, negative = inhibition) at 10uM” value is on record?
**A.** -6.54%

**Q.** Which “hERG current change (%, negative = inhibition) at 10uM” value does the source give for `Cn1c(SCc2ccccc2)nnc1-c1ccc2nonc2c1` here?
**A.** -9.18%

**Q.** With `Cc1ccc(SCC(=O)NC2CCS(=O)(=O)C2)cc1` (stereo not shown) as the compound, how does the “hERG current change (%, negative = inhibition) at 10uM” value read?
**A.** 10.1%

**Q.** How did the “hERG current change (%, negative = inhibition) at 10uM” value turn out when `COc1ccc(N(CC(=O)NCc2ccco2)C(=O)CNS(=O)(=O)c2ccc(Cl)cc2)cc1` was run?
**A.** -10.9%

**Q.** `Cc1ccc(CNC(=O)C2CCCN2C(=O)Nc2ccc(C)cc2)cc1` (stereo not shown) was tested. Which “hERG current change (%, negative = inhibition) at 10uM” value did it give?
**A.** 10.7%

**Q.** With `COc1ccc(CCn2c(=N)c(C(=O)N3CCN(C)CC3)cc3c(=O)n4ccccc4nc32)cc1` as the compound, how does the “hERG current change (%, negative = inhibition) at 10uM” value read?
**A.** -76.2%

**Q.** With `Cc1ccc(S(=O)(=O)N2CCN(C(=O)COC(=O)c3c(C)cc(C)cc3C)CC2)c(C)c1` as the compound, how does the “hERG current change (%, negative = inhibition) at 10uM” value read?
**A.** 3.33%

**Q.** How did the “hERG current change (%, negative = inhibition) at 10uM” value turn out when `COc1ccc(C2=NN(C(N)=S)C(c3ccccc3)C2)cc1` (stereo not shown) was run?
**A.** -14.9%

**Q.** How did the “hERG current change (%, negative = inhibition) at 10uM” value turn out when `Cc1ccccc1OCC(=O)N/N=C/c1ccc(Sc2nc3ccccc3s2)o1` was run?
**A.** 10.4%

**Q.** With `CCc1nc2oc3ccccc3c(=O)c2c(=O)n1-c1ccccc1` as the compound, how does the “hERG current change (%, negative = inhibition) at 10uM” value read?
**A.** -24.4%

**Q.** `O=S(=O)(NCC1CCN(S(=O)(=O)c2ccccc2)CC1)c1ccccc1` was tested. Which “hERG current change (%, negative = inhibition) at 10uM” value did it give?
**A.** -9.78%

**Q.** How did the “hERG current change (%, negative = inhibition) at 10uM” value turn out when `CC1CCC(NC(=O)c2cnccn2)CC1` (stereo not shown) was run?
**A.** 11.6%

**Q.** Which “hERG current change (%, negative = inhibition) at 10uM” value does the source give for `COc1ccc(C(=O)N/N=C(\C)CC(=O)Nc2cccc(C(F)(F)F)c2)cc1` here?
**A.** -15.3%

**Q.** `COCCNC(=O)CN(C(=O)CCC(=O)Nc1ccccn1)c1ccc(OC)cc1` was tested. Which “hERG current change (%, negative = inhibition) at 10uM” value did it give?
**A.** 17.8%

**Q.** With `COC(CNC(=O)C1CC(=O)N(CCc2ccccc2)C1)OC` (stereo not shown) as the compound, how does the “hERG current change (%, negative = inhibition) at 10uM” value read?
**A.** -0.757%

**Q.** How did the “hERG current change (%, negative = inhibition) at 10uM” value turn out when `CSCCC1NC(=O)N(CC(=O)N2N=C(c3ccc(Cl)cc3)CC2c2ccco2)C1=O` (stereo not shown) was run?
**A.** -19.4%

**Q.** `COc1ccc(C(=O)/C=C2/C(=O)Nc3ccccc32)cc1` was tested. Which “hERG current change (%, negative = inhibition) at 10uM” value did it give?
**A.** 13.3%

**Q.** For `COc1ccccc1NC(=O)Cn1cc(C(=O)C(=O)N2CCOCC2)c2ccccc21`, which “hERG current change (%, negative = inhibition) at 10uM” value is on record?
**A.** 25.4%

**Q.** How did the “hERG current change (%, negative = inhibition) at 10uM” value turn out when `CCSc1nnc(NC(=O)C2CC(=O)N(Cc3ccccc3)C2)s1` (stereo not shown) was run?
**A.** -10.5%

**Q.** `O=C(CCC(=O)N1CCN(S(=O)(=O)c2ccc(Cl)cc2)CC1)Nc1ccc2ccccc2c1` was tested. Which “hERG current change (%, negative = inhibition) at 10uM” value did it give?
**A.** 1.35%
